The source of these data is the RNAGym collection of RNA variant scans (doi:10.1093/nar/gkz1192).

Read counts are not given, so values of variants with three or more changes are uncertain.

Sequences and labels used below:
B1: CPEB3 Ribozyme (parent)
chain: UAACAGGGGGCCACAGCAGAAGCGUUCACGUCGCAGCCCCUGUCAGAUUCUGGUGAAUCUGCGAAUUCUGCUGUAUAUCUC

In the series the parent is B1. The series can be described thus: self-cleavage, relative activity (ratio to wild type); higher = more cleavage; in vitro, sequencing. In a few lines:
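After error-prone PCR and barcoding, CPEB3 ribozyme mutant libraries were transcribed with T7 RNA polymerase at 37°C for 5 hours, then given 15 min with DNase I before an EDTA stop, and they cleaved during both steps. Reverse transcription with template switching preceded Illumina sequencing. Relative activity divides a variant's cleaved/total read fraction by the unmutated ribozyme's. At least 5 reads were required per variant, and three batches were averaged.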
Take UAACAGGGGGCCACAGCGGAAGCGUUCACGUCGCAGCCCCUGUCAGAUUCUGGUGAAACUGCGAAUUCCGCUGUAUAACUC [A18G U58A U69C U78A]: the self-cleavage came to 0.66. The value for UAACAGGGGGCCACAGCUGAUGCGUUCACGUCGCAGCCCCUGACAGACUCUGGUGUAUCUGCGAAUUCUGCCGUAUACCUC [A18U A21U U43A U48C A56U U72C U78C] was 0.08. In the case of UAACAGGGGGCCACAGCUGUAGCGUUCACGUCGCAGCCCCUGUCAGAUCCUGGUGAAUCUGCGAAUUCUGCUGUAUAUCUC [A18U A20U U49C] it was 0.39.

For UAACAGGGGGCCACAGCGGAAGCGUUCACGUCGCAGCCCCUGUCAGAUUCUGGCGAGUCUGCGAAUUCUGCUGUAUAUCUC [A18G U54C A57G], the self-cleavage came to 0.3. Take UAACAGGGGGCCACAGCUGGAGCGUUCACGUCGCAGCCCCUGUCAGAUUCUGGUGAAUCUGCGAAUUCUGCUGUAAAUCUC [A18U A20G U76A]: the self-cleavage was determined as 0.36. UAACAGGGGGCCACAGCUGAGGCGUCCACGUCGCAGCCCCUGUCAGAUUCUGGUGAAUCUGCGAAUUCUGCUGUAUAUCUC [A18U A21G U26C]: the self-cleavage was determined as 0.07. In the case of UAACAGGGGGCCACAGCUGUAGCGUUCACGUCGCAGCCCCUGUCGGAUUCUGGUGAAUCUGAGAAUUCUGCCGUAUAUCUC [A18U A20U A45G C62A U72C] it was 0.23. The value for UAACAGGGGGCCACAGCGGAAGCGUUCACGUCGCAGCCCCUGUCAGAUUCUGGUGAAUCCGCGAAUUCUGCUGUAUAACUC [A18G U60C U78A] was 0.27; that for UAACAGGGGGCCACAGCGGAAGCGUUCACGUCGCAGCCCCUGUCAGAUUCUGGUGAAUCUGCGAAUUCUGCCGUACAUCAC [A18G U72C U76C U80A] was 0.79. In the case of UAACAGGGGGCCACAGCUGACGCGUUCACGUCGCAGCCCAUGGCAGAUUCUGGUGUAUCCGCGAGUUCUGCUGUAUAUCUC [A18U A21C C40A U43G A56U U60C A65G], the self-cleavage worked out at 0.04. Take UAACAGGGGGCCACAGCGGAAGCGUUCACGUCGCAGCCCCUGUCAGAUACUGGUGAAUCUGCGAGUUCUGCUGUAUAUCUC [A18G U49A A65G]: the self-cleavage worked out at 0.14. Take UAACAGGGGGCCACAGCUGAGGCGUUCACGUCGCGGCCCCUGUCAGAUUCUGGUGAAUCUGCGGAUUCUGCUGUAUAUCUC [A18U A21G A35G A64G]: the self-cleavage was found to be 0.42. In the case of UAACAGGGGGCCACAGCGGAAGCGUUCACGUCGCAGCCCCUGUCAGAUUCUGGUGAAACUGCGAAUUCUGCUGUAUACCUC [A18G U58A U78C] it was 0.2; in that of UAACAGGGGGCCACAGCGGAAGCGUUCACGUCGCAGCCCCUGUCAGAUUCUGGUGAAUCUGCGAAUUCUGCAGUAUGUCUC [A18G U72A A77G], 0.15. UAACAGGGGGCCACAGCUGAGGCGUUCACGUCGCAGCCCCUGUCAGGUUCUGGUGAAUCUGCGAAUUCCGCUGUGUAUCUC [A18U A21G A47G U69C A75G]: the self-cleavage turned out to be 0.05. For the variant UAACAGGGGGCCACAGCGGAAGCGUUCACGUCGCAGCCCCUGUCAGAUCCUGGUGAAUCUGCGAAUUCCGCUGUAUACCUC [A18G U49C U69C U78C], the self-cleavage was found to be 0.58.

Turning to UAACAGGGGGCCACAGCGGAAGCGUUCACGUCGCAGCCCCUGUCAGAUCCUGGUGAACCUGCGAAUUCUGCUGUGAAUCUC [A18G U49C U58C A75G U76A], the self-cleavage was 0.1. Take UAACAGGGGGCCACAGCUGAGGCGUUCACGUCGCAGCCCCCGUCAGAUUCUGGUGUAUCUGCGAAUUCUGCUGAAUAUCUC [A18U A21G U41C A56U U74A]: the self-cleavage is 0.03.

On to UAACAGGGGGCCACAGCGGAAGCGUUCACGUCGCAGCCCCUGUCAGAUUCUGGUGAAUCUGCGAAUUCAGCCGAAUAUCCC [A18G U69A U72C U74A U80C], for which the self-cleavage came out at 0.26. As to UAACAGGGGGCCACAGCGGAAGCGUUCACGUCGCAGCCCCUGUCAGAUUCCGGUGAAUCUGCGUGUACUGCUGUAUAUCUA [A18G U51C A64U A65G U67A C81A], the self-cleavage came to 0.36.

As for UAACAGGGGGCCACAGCGGAAGCGUUCACGUCGCAGCCCCUGUCAGAUUCUGGUGAAUCCGCGAAUUCAGCUGUAUAUCUC [A18G U60C U69A], the self-cleavage turned out to be 0.21. As to UAACAGGGGGCCACAGCUGAUGCGUUCACGUCGCAGCCCCUGCCAGAUUCUGGUGAAUCUGCGAAUGCUGCUGUAUAUCUC [A18U A21U U43C U67G], the self-cleavage came out at 0.06. UAACAGGGGGCCACAGCGGAAGCGUUCACGUCGCAGCCCCUGUCAGAUUCUGGUGAAUCUGCGAAUUCUGCCGUAUACCUC [A18G U72C U78C]: the self-cleavage worked out at 0.83.

UAACAGGGGGCCACAGCGGAAGCGUUCACGUCGCAGCCCCUGUCAGAUUCUGGUGAAUCUGCGAAAUCUGCGGUAUAUCUC [A18G U66A U72G]: the self-cleavage came out at 0.14. For UAACAGGGGGCCACAGCGGAAGCGUUCACGUCGCAGCCCCUGUCAGAUUCUGGCGAAUCUGCGAAUUCAGCUGUACAUCUA [A18G U54C U69A U76C C81A], the self-cleavage stood at 0.91.

As for UAACAGGGGGCCACAGCUGGGGCGUUCACGUCGCAGCCCCUGUCAGAUUCUGGUGAACCUGCGAAUUAUGCUGUAUAUCUC [A18U A20G A21G U58C C68A], the self-cleavage worked out at 0.09.

In the case of UAACAGGGGGCCACAGCGGAAGCGUUCACGUCGCAGCCCCUGUCAGAUUCUGGGGAUUCUGCGAAUUCUGCCGUAUAUCUC [A18G U54G A57U U72C], the self-cleavage turned out to be 0.16.

As for UAACAGGGGGCCACAGCGGAAGCGUUCACGUCGCAGCCCCUGUCAGAUUCUGGUGAAUCUGCGAACUCAGCUGUAUAUCUC [A18G U66C U69A], the self-cleavage came to 0.22. In the case of UAACAGGGGGCCACAGCGGAAGCGUUCACGUCGCAGCCCCUGUCAGACUCUGGUGAAUCUGCGAAUUCUGCUGUUUAUCUC [A18G U48C A75U], the self-cleavage is 0.32. In the case of UAACAGGGGGCCACAGCGGAAGCGUUCACGUCGCAGCCCCUGUCAGAUUCUGGCGAAUCUGCGAAUUCUGCUGCAUAUCUC [A18G U54C U74C] it was 1.05; in that of UAACAGGGGGCCACAGCGGAAGCGUUCACGUCGCAGCCCCUGUCAGAUUCUGGAGAAUCUGCGGAUUCUGCUGUAUAUCUC [A18G U54A A64G], 0.41; in that of UAACAGGGGGCCACAGCUGAAGCGUUCCCGCCGCAGCCCCUGUCAGAUUCUGGUGAAUCUGCGAAUUCUGCUGUAUAUCCC [A18U A28C U31C U80C], 0.2. In the case of UAACAGGGGGCCACAGCGGAAGCGUUCACGUCGCAGCCCCUGUCAGAUUCCGGUGAGUCUGCGAAUUCUGCUGUAUAUCUC [A18G U51C A57G] it was 0.49. Take UAACAGGGGGCCACAGCUGGAGCGUUCACGUCGCUGCCCCCGCCAGACUCUGGUGAAUCUGCGAAUUCUGCUGUAUAUCUC [A18U A20G A35U U41C U43C U48C]: the self-cleavage is 0.08.
